Assay results: PubChem BioAssay AID1508623 (National Center for Advancing Translational Sciences (NCATS), 2021)
Hit rate of the full screen: of about 48,000 compounds, about 450 (0.94%) were called active. Inconclusive results (about 19%) are left out. The call rests on the fitted dose curve; in most records, active means well fitted inhibition curve with a large enough effect; inconclusive means small, poorly fitted or top-dose-only effect; inactive means no such curve, though single readings can be large or run the other way. The list shows a part of the results.

test: Primary qHTS for Identification of Small Molecule Inhibitors of Huntingtin Promoter Activity; conditions: HEK293 HTT promoter firefly luciferase reporter (activity 0% = vehicle and -100% = no light), 24 h; series mostly up to 57.5 µM; activity change, negative = inhibition: at the top concentration; further: nearly all actives have a fitted effect of over 50% in size
Outline: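 Quantitative HTS used concentration series of up to 57.5 uM final on HEK293 luciferase reporter cells, 24 h at 37 degrees C. Readout was Dual-Glo firefly luminescence.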

Activity change, negative = inhibition, inactive:
CC(=O)c1cccc(NC(=O)c2nc(-c3ccccc3)n(-c3cccc(Cl)c3)n2)c1 -14.5%
Cc1ccc(OCCCCn2nnc3sc4c(c3c2=O)CCCC4)cc1 7.01%
CC(=O)c1cc(-c2ccccc2)n(CCC(=O)NCc2ccc(C)cc2)c1C -28.2%
CCOc1ccccc1CNc1ccc2cc(S(=O)(=O)N3CCC(C)CC3)ccc2n1 -29%
COc1ccc(-c2nn3c(=O)cc(CN4CCN(C(=O)c5ccc(OC)c(OC)c5)CC4)nc3s2)cc1 -13.3%
COc1ccc(-c2noc(N(c3nc(-c4ccc(OC)c(OC)c4)no3)c3ccccc3OC)n2)cc1OC -0.894%
CCc1ccc(-n2c(=O)c3c(C)c(C)sc3n(CC(=O)NCc3ccc(C)cc3)c2=O)cc1 2.25%
CCCCc1nn2c(=O)cc(COC(=O)c3cccc(NC(=O)CCc4ccccc4)c3)nc2s1 71.6%
CCCN(CCC)C(=O)Cn1c(=O)n(-c2ccccc2)c(=O)c2c3c(sc21)CCCC3 -16.7%
O=S(=O)(NCc1nc2cccnc2n1Cc1ccccc1)c1ccc2c(c1)CCCC2 -13.8%
N#C/C(=C/c1ccc(Cl)cc1)c1nc(-c2ccc(Br)cc2)cs1 -8.18%
Cc1ccc(NS(=O)(=O)c2ccc3[nH]c(=O)oc3c2)c(C)c1 -6.05%
COc1cc2nc(SCC(=O)Nc3c(C)cc(C)cc3C)n3nc(CCn4c(C)nc5ccccc54)nc3c2cc1OC -21.3%
CCOC(=O)c1c(S(=O)(=O)NCC(=O)N2CCN(c3ccccc3)CC2)c(C)n(C)c1C 3.96%
COc1ccccc1CNC(=O)CCn1c(=O)c2ccccc2n(CC(=O)Nc2ccc(C)cc2Cl)c1=O -8.32%
CC(=O)NCC(c1ccc2c(c1)OCO2)N1CCN(c2ccccc2)CC1 (stereo unspecified) -6.51%
Cn1c(=O)c(=O)n(C)c2cc(NC(=O)c3cccc(F)c3)c(Cl)cc21 -2.3%
COc1ccc(N(CC(=O)NCc2ccccc2Cl)S(=O)(=O)c2c(C)nn(C)c2C)cc1 -13.3%
CCOc1ccccc1CNC(=O)CCCn1ncn2c(cc3occc32)c1=O -2.86%
CCOc1ccc(C(=O)c2cn(CC(=O)Nc3ccc(F)cc3)c3cc4c(cc3c2=O)OCO4)cc1 -12.9%
CN(C)CCCN(C(=O)c1ccc(Br)s1)c1nc2ccc(F)cc2s1 3.01%
Cc1ccc2cccc(NC(=O)COc3cc(C)c(Cl)c(C)c3)c2n1 -2.79%
Cc1nn(CC(=O)Nc2ccccc2C(F)(F)F)c(=O)c2cccn12 3.99%
CCCCN(CC)CCNC(=O)CN1C(=O)COc2ccc(S(=O)(=O)N3CCCC3)cc21 -6.16%
Cc1ccc(CCNC(=O)CCn2nc(-c3ccccc3)ccc2=O)cc1 1.08%
COc1ccc(NC(=O)c2ccc3nc(CCc4ccccc4)oc3c2)c(OC)c1 36.9%
CCOc1ccc(C(=O)Nc2c(C(=O)c3ccc(OC)cc3)oc3ccccc23)cc1 -1.33%
O=C(NCCc1ccccc1)c1ccc(Cn2c(SCc3cccc(F)c3)nc3cccnc32)cc1 -18.5%
CCn1c(NCc2ccc(OC)cc2)nc2ccccc21 33.9%
CCOc1ccc(NC(=O)c2ccc3c(=O)n4nc(Nc5ccccc5C)sc4nc3c2)cc1 -1.32%
COc1cc(C(CC(=O)Nc2ccc(F)cc2F)N2Cc3ccccc3C2=O)cc(OC)c1OC (stereo unspecified) -25.7%
CCCCCn1cc2c(c1-c1ccc(Br)cc1)c(=O)n(C)c(=O)n2C -4.97%
CCc1ccccc1NC(=O)Cn1c(=O)n(-c2ccc(C)cc2)c(=O)c2c1c1cc(C)ccc1n2C 3.73%
COc1ccc(OC)c(NC(=O)c2cc3cc(C)ccc3n2C)c1 -14.5%
Cc1nc2ncnn2c(C)c1CCC(=O)N1CCN(c2ccccc2)CC1 -2.46%
Cc1ccccc1CSc1nc2cc(C(=O)NC3CCCC3)ccc2c(=O)n1Cc1ccccc1 0.453%
Cc1cc2c(cc1C)NC(CC(=O)Nc1ccccc1)C(=O)N2 (stereo unspecified) -5.77%
CCN(Cc1ccccc1)C(=O)Cn1cc(S(=O)(=O)Cc2cccc(Cl)c2)c2ccccc21 -14.6%
CCCSc1ccc2nc(NC(=O)OC)[nH]c2c1 -0.24%
CCc1ccc(NC(=O)C(=O)NCC(c2cccnc2)N2CCN(Cc3ccccc3)CC2)cc1 (stereo unspecified) -29%
O=C(CCCn1c(=O)c2cccn2c2ccc(F)cc21)NCc1ccc(Cl)cc1 -5.31%
COC(=O)CC1Oc2ccccc2-n2cc(-c3ccccc3)nc21 (stereo unspecified) -21.2%
CC1CCN(C(=O)CSc2c(C(C)C)cnc3c2c(=O)n(C)c(=O)n3C)CC1 -7.91%
CCOc1ccc(CNS(=O)(=O)c2ccc3[nH]c(=O)ccc3c2)cc1 -24.4%
CCC(=O)Nc1ccc2nc(SCCOc3ccccc3)sc2c1 -12.5%
CCCCOc1ccc(CNC(=O)c2ccc(NC(=O)N3CCCCc4ccccc43)cc2)cc1 -11.6%
CC(=O)Nc1nonc1-c1nnc(SCC(=O)Nc2ccccc2)n1-c1ccccc1 -21.1%
Cc1ccc(NC(=O)CSc2ncn[nH]2)cc1C -15.3%
CNS(=O)(=O)c1cn(CC(=O)Nc2cccc(OC)c2)cc1S(=O)(=O)NC -12.4%
COC(=O)c1ccc(-n2c(CCC(=O)O)ccc2-c2ccc(C)cc2)cc1 -4.92%
CCOC(=O)Cn1c(=O)n(CC2CCCO2)c2nc(-c3cccc(C)c3)nc(C(N)=O)c21 (stereo unspecified) -5.19%
Cc1ccc(C)c(N2CCN(Cc3nnc(-c4ccc5c(c4)OCO5)o3)CC2)c1 -21%
Cn1c(=O)oc2cc(S(=O)(=O)NC(Cc3ccccc3)C(=O)NCc3ccc(F)cc3)ccc21 (stereo unspecified) -7.47%
COc1ccccc1OC(C)C(=O)Nc1c(C(=O)c2ccc(Cl)cc2)oc2ccccc12 (stereo unspecified) -10.4%
CCn1c(C)c(C)c2cc(C(=O)NCCCN3CCCCC3)ccc21 -5.04%
Cc1ccc(N(CC(=O)NCc2ccc(F)cc2)S(=O)(=O)c2c(C)nn(C)c2C)cc1 -7.6%
COc1cccc(CNC(=O)c2ccc3c(c2)nnn3C2CCCC2)c1 -4.59%
CCCCSCCCNC(=O)c1cn(C)c2ccc(S(=O)(=O)N3CCCCC3)cc2c1=O -13.1%
COc1ccc(-n2nc(C(=O)Nc3ccc(C)cn3)c3c4ccccc4n(C)c3c2=O)cc1 -20.4%
Cc1ccc(-n2cc(-c3ccccc3)nc2S(=O)(=O)CC(=O)Nc2ccc(F)cc2)cc1 49.1%
O=C(CNC(=O)c1ccccc1F)OCc1cc(=O)n2ccsc2n1 -4.76%
